Laboratory results reported in the supplement of paper PMC11876631.
Residue numbers refer to the chain shown, from its start. Names and notes keep the numbering of the source. ± gives the standard deviation of the averaged measurements. Laboratory Escherichia coli strains with one amino-acid change in an essential protein, pooled on minimal glucose agar with carbenicillin or gentamicin at twice the control MIC (plus kanamycin and chloramphenicol for the plasmids), 48 h. Fold change of barcode share against drug-free plates; higher = less susceptible. Active = above 20 in both replicates (the paper's putatively resistant). '<' = one read or none on drug, '>' = one read or none on a drug-free plate. Shares are relative, so most strains fall below 1 when a few take over. Listed are strains with at least 15 reads on both drug-free plates, and hits; most hits rest on fewer reference reads. Replicate rank correlation about 0.5. Edits are read from barcodes.

B1: argC I180A (protein)
chain: MLNTLIVGASGYAGAELVTYVNRHPHMNITALTVSAQSNDAGKLISDLHPQLKGIVDLPLQPMSDISEFSPGVDVVFLATAHEVSHDLAPQFLEAGCVVFDLSGAFRVNDATFYEKYYGFTHQYPELLEQAAYGLAEWCGNKLKEANLIAVPGCYPTAAQLALKPLIDADLLDLNQWPVANATSGVSGAGRKAAISNSFCEVSLQPYGVFTHRHQPEIATHLGADVIFTPHLGNFPRGILETITCRLKSGVTQAQVAQVLQQAYAHKPLVRLYDKGVPALKNVVGLPFCDIGFAVQGEHLIIVATEDNLLKGAAAQAVQCANIRFGYAETQSLI
B2: argC V76A (protein)
chain: B1 chain with V76A, A180I
B3: argC V76W (protein)
chain: B1 chain with V76W, A180I
B4: ftsY I364A (protein)
chain: MAKEKKRGFFSWLGFGQKEQTPEKETEVQNEQPVVEEIVQAQEPVKASEQAVEEQPQAHTEAEAETFAADVVEVTEQVAESEKAQPEAEVVAQPEPVVEETPEPVAIEREELPLPEDVNAEAVSPEEWQAEAETVEIVEAAEEEAAKEEITDEELETALAAEAAEEAVMVVPPAEEEQPVEEIAQEQEKPTKEGFFARLKRSLLKTKENLGSGFISLFRGKKIDDDLFEELEEQLLIADVGVETTRKIITNLTEGASRKQLRDAEALYGLLKEEMGEILAKVDEPLNVEGKAPFVILMVGVNGVGKTTTIGKLARQFEQQGKSVMLAAGDTFRAAAVEQLQVWGQRNNIPVIAQHTGADSASVAFDAIQAAKARNIDVLIADTAGRLQNKSHLMEELKKIVRVMKKLDVEAPHEVMLTIDASTGQNAVSQAKLFHEAVGLTGITLTKLDGTAKGGVIFSVADQFGIPIRYIGVGERIEDLRPFKADDFIEALFARED
B5: ftsY I364P (protein)
chain: B4 chain with A364P
B6: ftsY I364Q (protein)
chain: B4 chain with A364Q
B7: ftsZ V15W (protein)
chain: MFEPMELTNDAVIKWIGVGGGGGNAVEHMVRERIEGVEFFAVNTDAQALRKTAVGQTIQIGSGITKGLGAGANPEVGRNAADEDRDALRAALEGADMVFIAAGMGGGTGTGAAPVVAEVAKDLGILTVAVVTKPFNFEGKKRMAFAEQGITELSKHVDSLITIPNDKLLKVLGRGISLLDAFGAANDVLKGAVQGIAELITRPGLMNVDFADVRTVMSEMGYAMMGSGVASGEDRAEEAAEMAISSPLLEDIDLSGARGVLVNITAGFDLRLDEFETVGNTIRAFASDNATVVIGTSLDPDMNDELRVTVVATGIGMDKRPEITLVTNKQVQQPVMDRYQQHGMAPLTQEQKPVAKVVNDNAPQTAKEPDYLDIPAFLRKQAD
B8: ftsZ V311A (protein)
chain: B7 chain with W15V, V311A
B9: ftsZ F99W (protein)
chain: B7 chain with W15V, F99W
B10: ftsZ V128A (protein)
chain: B7 chain with W15V, V128A
B11: ftsZ V116W (protein)
chain: B7 chain with W15V, V116W
B12: ftsZ V116A (protein)
chain: B7 chain with W15V, V116A

Molecular target: Escherichia coli (laboratory strain)
Assay: barcode share on antibiotic plates over drug-free plates; higher = less susceptible
Protocol: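 A pool of E. coli strains, each edited to carry one amino-acid change in an essential protein, was grown for 48 h on minimal glucose agar with or without antibiotic; strain barcodes were sequenced; mean of two replicates.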

[1] = antibiotic: carbenicillin, 2× MIC (3.1 µg/mL)
[2] = antibiotic: gentamicin, 2× MIC (MIC 0.45 µg/mL)

Row | Protein | fold change of barcode share [1] | fold change of barcode share [2]
1 | B1 | 0.489 ± 0.13 | 0.00746 ± 0.00064
2 | B2 | 0.906 ± 0.21 | < 0.012
3 | B3 | 1.64 ± 0.49 | 
4 | B4 | 0.263 ± 0.043 | 0.341 ± 0.47
5 | B5 | 0.337 ± 0.24 | < 0.0163
6 | B6 | 0.245 ± 0.18 | < 0.0157
7 | B7 | 0.166 ± 0.097 | 
8 | B8 | 0.0778 ± 0.047 | < 0.013
9 | B9 | 0.235 ± 0.1 | < 0.00937
10 | B10 | 0.239 ± 0.015 | 0.0129 ± 0.0063
11 | B11 | 0.187 ± 0.17 | 
12 | B12 | 0.378 ± 0.0078 | 0.00498 ± 0.0039
